# Measurements: PubChem BioAssay AID488969 (Vanderbilt High Throughput Screening Facility, 2010)
# The full ranking holds about 110,000 compounds; the median of “z-score” is about -0.1, and the highest 2% start at about 2. The list shows a part of the results.
# Molecular target: Metabotropic glutamate receptor 8 (Rattus norvegicus) (UniProt P70579)
# Test: rat mGluR8 modulators via GIRK flux, primary screen, cell-based, thallium flux, HTS (AID 488969)
# Conditions: HEK293 rat mGluR8, GIRK (G protein-gated inwardly rectifying potassium channel) thallium flux, FluoZin2; at 10 µM; stronger effect = higher value; submaximal glutamate (EC20) added with thallium
# Chain of UniProt P70579 (P70579 whole entry, looked up): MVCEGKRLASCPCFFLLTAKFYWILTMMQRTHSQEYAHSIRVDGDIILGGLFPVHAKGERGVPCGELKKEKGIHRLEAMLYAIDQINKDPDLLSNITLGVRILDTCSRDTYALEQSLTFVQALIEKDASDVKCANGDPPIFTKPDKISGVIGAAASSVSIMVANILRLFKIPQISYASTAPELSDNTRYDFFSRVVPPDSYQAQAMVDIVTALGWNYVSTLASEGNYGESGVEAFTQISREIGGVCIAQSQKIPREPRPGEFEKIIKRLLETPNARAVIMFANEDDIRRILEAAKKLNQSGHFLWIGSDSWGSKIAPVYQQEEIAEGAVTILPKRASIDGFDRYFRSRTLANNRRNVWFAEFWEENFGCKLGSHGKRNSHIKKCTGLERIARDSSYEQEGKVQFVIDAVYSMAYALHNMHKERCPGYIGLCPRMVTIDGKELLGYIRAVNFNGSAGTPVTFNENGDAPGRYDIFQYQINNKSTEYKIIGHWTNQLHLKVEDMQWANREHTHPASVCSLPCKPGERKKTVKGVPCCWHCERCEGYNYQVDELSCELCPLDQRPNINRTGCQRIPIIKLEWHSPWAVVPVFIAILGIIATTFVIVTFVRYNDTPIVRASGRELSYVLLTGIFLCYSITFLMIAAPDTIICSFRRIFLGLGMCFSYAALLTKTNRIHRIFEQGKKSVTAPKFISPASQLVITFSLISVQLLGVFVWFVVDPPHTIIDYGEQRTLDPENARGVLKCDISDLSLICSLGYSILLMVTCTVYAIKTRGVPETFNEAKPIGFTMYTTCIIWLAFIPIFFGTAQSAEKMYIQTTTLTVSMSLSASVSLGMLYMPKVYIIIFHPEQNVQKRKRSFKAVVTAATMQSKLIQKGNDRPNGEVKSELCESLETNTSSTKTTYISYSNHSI
row,Structure (SMILES),z-score
1,O=C(Cn1c(-c2ccc(Cl)cc2)noc1=O)N1CCN(c2ccccc2F)CC1,-0.926
2,CC(/C=C/c1ccco1)=N\NC(=O)C(O)c1ccccc1 (stereo unspecified),-0.055
3,c1ccc2c(c1)OCC(c1csc3ncnc(N4CCOCC4)c13)O2 (stereo unspecified),-0.316
4,Cc1ccc(-c2nn(-c3ccccc3)cc2C=C2C(=O)CC(C)(C)CC2=O)cc1,-0.154
5,Cc1ccc(-c2nc(CS(=O)(=O)CC(=O)NCCCN3CCN(C)CC3)c(C)o2)cc1,-0.341
6,CC(C)C(=O)Nc1nnc(SCC(=O)NCc2cccs2)s1,-0.825
7,COC(=O)c1c(NC(=O)Cn2nc(C(F)F)cc2C(F)F)sc(C)c1C,0.152
8,CCCCCCCCCCCNC(=O)c1ccoc1C,0.0259
9,CN(C)c1ccc(P(=O)(OC2CCCCC2)C(O)c2cccnc2)cc1 (stereo unspecified),-0.0858
10,CSc1nc(Oc2ccc3ccccc3c2)c2sccc2n1,0.0407
11,CCOc1cc(-c2nc(-c3cc(OC)c(OC)c(OC)c3)no2)cc(OCC)c1OCC,0.87
12,Cn1ncc(N=Cc2ccccc2)c1C(=O)Nc1cccc(Cl)c1,-0.106
13,Cc1ccccc1-c1nnc(-c2ccc(Cl)cc2)o1,-0.333
14,FC(F)(F)c1cccc(NC(=S)N2CCN(c3ccccc3)CC2)c1,0.0856
15,N#CCCn1c(C2CCCCC2)nc2ccccc21,0.0918
16,CCc1cccc(CC)c1NC(=O)c1cccc(NC(=O)c2ccccc2)c1,-0.107
17,CC(C)CCC(C)N=Cc1c(O)n(Cc2ccccc2)c(=O)c2ccccc12 (stereo unspecified),-0.0415
18,CCC(=O)Nc1ccc(Nc2ccccc2)cc1,0.0667
19,CN(/C=C/C(=O)C(F)(F)F)Cc1ccccc1,-0.217
20,NS(=O)(=O)c1ccc(CCN=Cc2ccccc2O)cc1,-0.17
21,Cc1nn(C(C)C(=O)Nc2ccc(Cl)cn2)c(C)c1[N+](=O)[O-] (stereo unspecified),-0.494
22,CC(=O)Nc1ccc(NC(=O)CSc2nc3ccccc3o2)cc1,-0.0932
23,COc1ccc(CCN/C=C2/CC(=O)NC2=O)cc1OC,1.42
24,O=C(O)CCC(=O)N1N=C(c2c(-c3ccccc3)c3cc(Cl)ccc3[nH]c2=O)CC1c1ccco1 (stereo unspecified),-0.219

row,Structure (SMILES),z-score
1,O=[N+]([O-])c1ccc(C(=S)N2CCC(Cc3ccccc3)CC2)cc1,-0.242
2,O=[N+]([O-])c1ccc(O)c(/C=N/Nc2nc3ccccc3[nH]2)c1,-0.372
3,COc1cccc(S(=O)(=O)NCc2ccc(C(=O)Nc3ccc(C)cc3)cc2)c1,0.241
4,O=c1oc2ccccc2c2c1nc(C(F)(F)F)n2-c1ccccc1,-2.48
5,CCN1C(=O)c2ccccc2S(=O)(=O)c2ccc(C(=O)NCc3cccnc3)cc21,-0.157
6,Cc1cc(C)c(S(=O)(=O)c2c(C)cccc2C)c(Cl)n1,0.0429
7,CCOC(=O)C1=C(N)N2C(=O)C(C)SC2=C(C(=O)OCC)C1c1ccccc1 (stereo unspecified),-0.331
8,Oc1ccc(C(=S)N2CCCCC2)cc1,-0.146
9,CC(C)c1c(O)cc(-c2ccncc2)n(-c2ccc(Cl)cc2)c1=O,0.724
10,FC(F)(F)c1ccc(N2CCN(c3ncnc4c3nnn4Cc3ccccc3)CC2)nc1,-0.129
11,Cc1cc(NC(=O)c2c(-c3ccccc3Cl)noc2C)no1,0.878
12,COc1ccc(CCN2C(=O)C3C4C=CC(C3C2=O)C2C(=O)N(CCc3ccc(OC)c(OC)c3)C(=O)C42)cc1OC (stereo unspecified),-0.192
13,CCc1nnc(SCC(=O)NC2CCCC2)nc1CC,-0.417
14,CCCC(=O)N1CC(=O)Nc2ccc(F)cc2C1c1ccccc1 (stereo unspecified),-0.534
15,COc1ccc(CNc2nc(SCC(=O)NCc3ccco3)nc3ccccc23)cc1,-0.121
16,O=C(Cn1cc(C(F)(F)F)ccc1=O)N/N=C/c1ccc(Cl)c(Cl)c1,-0.189
17,COc1ccc2cc(C(=O)NC3CCCCC3)c(=O)oc2c1,1.24
18,COc1ccc(CNC(=O)[C@H](C)NC(=O)C2CCN(S(=O)(=O)c3ccc(C)cc3)CC2)cc1,-0.431
19,O=C(Cn1nnc(-c2cccs2)n1)N1c2ccccc2Sc2ccc(C(F)(F)F)cc21,-0.347
20,Cc1cc(C)n2nc(-c3sccc3-n3c(C)ccc3C)cc2n1,-0.413
21,COC(=O)c1cccc(NS(=O)(=O)c2cccs2)c1C,-0.213
22,CSc1ncc(Cl)c(C(=O)Nc2cccc(C)c2)n1,-0.278
23,CCCc1cc(NCCCCO)n2c(nc3ccccc32)c1C#N,0.879
24,O=C(NC1=NC2CCCCC2N1)c1ccccc1 (stereo unspecified),0.389

row,Structure (SMILES),z-score
1,Cc1ccc(N(C(=O)CCl)C(C(=O)NC2CCCCC2)c2cccnc2)cc1C (stereo unspecified),-0.0597
2,CCN(CC)S(=O)(=O)c1cc(C(=O)OCC(=O)c2ccc3c(c2)NC(=O)CO3)ccc1Cl,-0.129
3,CCOc1ccc(N2C(=O)CC(N3CCN(C4CCc5ccccc5C4)CC3)C2=O)cc1 (stereo unspecified),-1.05
4,O=C(O)CCNC(=O)c1cncc(Br)c1,-0.427
5,O=C(NCc1ccco1)C(c1cccs1)N(Cc1ccccc1)C(=O)Cn1nnc2ccccc21 (stereo unspecified),-0.301
6,CNC(=O)CN(c1cccc(Br)c1)S(C)(=O)=O,0.216
7,CN(C)S(=O)(=O)c1cc(C(=O)NCCCn2ccc3ccccc32)ccc1Cl,-0.037
8,CCOC(=O)c1ccc(N2C(=O)c3n[nH]c(C)c3C2c2ccc(O)cc2)cc1 (stereo unspecified),0.303
9,COc1ccc(S(=O)(=O)N(C)c2ccc(OCC(=O)Nc3cc(C)on3)cc2)cc1,-0.798
10,O=C(CSc1nnc(-c2ccccc2F)n1C1CC1)Nc1cccnc1Cl,-0.434
11,Cn1cccc1CNC1CCCC1,-1.43
12,O=C(O)c1ccc(Cl)c2c1C1C=CCC1C(c1ccccn1)N2 (stereo unspecified),-0.0854
13,Cc1nn(CC(=O)Nc2ccc(S(=O)(=O)N(C)C)cc2)c(C)c1[N+](=O)[O-],-0.0283
14,CC(C)(C)N1C(=O)c2ccc(C(=O)O)cc2C1=O,-0.147
15,CN(C)c1ccc(C(=O)/C=C/c2ccco2)cc1,-0.196
16,Fc1ccc(Cn2c(SCc3ccc(F)c(F)c3)nnc2C(F)(F)F)cc1,-0.728
17,O=C1CC(=O)C(n2cncn2)C(c2cccc(Cl)c2)C1 (stereo unspecified),-0.0582
18,O=C(Nc1nnc(C23CC4CC(CC(C4)C2)C3)s1)c1ccco1,-0.386
19,O=C(O)[C@H]1CCCC[C@H]1C(=O)Nc1ccc(Nc2ccccc2)cc1,-0.328
20,CCCN1C(=O)C(NC(C)=O)c2ccccc21 (stereo unspecified),0.136
21,CCOC(=O)c1cnc(SCc2ccccc2)nc1N,-0.388
22,CCC(=O)Nc1ccc(NC(=S)NC(=O)c2cc3ccccc3o2)cc1,0.638
23,Cc1ccc(S/C(=N\S(=O)(=O)c2ccc(Cl)cc2)c2ccccc2)cc1,-0.0761
